# Variants at the floor of the assay are shown more often than the library holds them.
# B1: TPR 5TU (parent)
# chain: GGAUCUUCUCGAUCUAACAAAAAAGACAAAUCUGCCACAAAGCUUGAGAGCAUCUUCGGAUGCAGAGGCGGCAGCCUUCGGUGGCGCGAUAGCGCCAACGUUCUCAACUAUGACACGCAAAACGCGUGCUCCGUUGAAUGGAGUUUAUCAUG
# Variants of: B1
# Test: polymerase ribozyme fitness, log enrichment relative to wild type (log ratio); higher = more active; in vitro selection for triplet polymerase activity
# Method in brief: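 Mutant libraries for each subunit of a heterodimeric triplet polymerase ribozyme were made by PCR and then transcribed. Each library underwent one round of in vitro selection in triplicate: annealing with a biotinylated primer, the partner subunit and triplets, frozen incubation at −7 °C, gel excision of extended constructs, streptavidin-bead capture and RT-PCR. Input and output libraries were Illumina-sequenced, and only genotypes with ≥10 input reads and ≥1 read per output were kept. Fitness is the logarithm, base 2, of genotype enrichment over wild-type enrichment, computed from inverse-variance-weighted replicate averages.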
row,Variant,polymerase ribozyme fitness (log ratio)
1,C35U A91G,-2.83
2,C35U G88A A115C A119G,-3.86
3,C36A C51U U78C,≤ -4.2
4,C35U G42A A60U G67C A107G,≤ -4.2
5,C35U A52C U55A C93U C149A,≤ -4.2
6,C35U A40C G68A G70U C75G C76G U82C G94C C95A U102G G126U,≤ -4.2
7,C35G G59A C75U A89G C96A,≤ -4.2
8,G34U C54U U78G G83A C108G,-4.13
9,C35U C54G C57G C69U U82A A91U G92A A113G,≤ -4.2
10,C35G A91C C118G C123A,≤ -4.2
11,C35U U78G A142C,≤ -4.2
12,C35U C51U A52C C54G C118G,≤ -4.2
13,C35A G74C C103G U139G,≤ -4.2
14,C35U U56A C57A A97U C123U U130C,-0.0554
15,C35G G48A A52G C57A G58A A60C A73C A91U C96U,≤ -4.2
16,G34U C54U A66C A91U A121U,-4.11
17,C35U U45A A66U C69A G126C G143A,≤ -4.2
18,G34U C95G A97U G100U G128A C132G U135C,≤ -4.2
19,C35U G50C G59U C87U U151G,≤ -4.2
20,C35A C108G C116A A142U,≤ -4.2
21,G34A U45A G94A U109A,≤ -4.2
22,G34A G117U A137C A142U,≤ -4.2
23,C35G A49C,≤ -4.2
24,C35A C43U C87A G128A,≤ -4.2

row,Variant,polymerase ribozyme fitness (log ratio)
1,C35G G48U G70A G92C C96G U146A,≤ -4.2
2,G34C U55G G65A,≤ -4.2
3,C35U U78G G88A G117A A137G,≤ -4.2
4,C35U C95U C96G,-1.52
5,C35A G65U G83A G140U,≤ -4.2
6,C35U U55A A91C,≤ -4.2
7,C35A U56C U82A,-3.49
8,C35U A40U G42C C54A C76G C85A,≤ -4.2
9,C35U C76A G94C C105U,≤ -4.2
10,C35A G59U C85A C105U,≤ -4.2
11,C35A C76U G81A C96U C103A,≤ -4.2
12,C35U A40G C51U G81C C87A,≤ -4.2
13,C35U C85G A137U,≤ -4.2
14,C35G G62A U101G,≤ -4.2
15,G34C A41C U109C,≤ -4.2
16,C35U A41G C93U A98G A120C C129G A142C,≤ -4.2
17,C35G C96U U145C,≤ -4.2
18,C35U G58C G71A C93G,-3.09
19,C35A G94A,-3.56
20,C35A A52G U78A C103A,≤ -4.2
21,C35G C36A A52C U82G G86U A121G,≤ -4.2
22,G34C C85U C96G C132U,≤ -4.2
23,G34U G94C G143A,≤ -4.2
24,C35U C54G G68A C75G G84U C103A C108U A147U,≤ -4.2

row,Variant,polymerase ribozyme fitness (log ratio)
1,C35U C116A,-0.104
2,C35U U53A,-0.557
3,C36A C79A C99G U111C A122G A138G,≤ -4.2
4,C35G C76U C85U G141U U145G U151C,≤ -4.2
5,C35U G62C C75G C87G,≤ -4.2
6,C35G C51U A107C G128U,≤ -4.2
7,C35U C38A U61A A66U C69G C76A U135A U148G,≤ -4.2
8,C35U G46A A119G A121U,-1.45
9,C36A C75U G83A A89C C99G C105U C123A C125A,≤ -4.2
10,G34U A52G C95G G133A U145A A150C,≤ -4.2
11,C36A A49U C51U U90G G94A C125U G126C,≤ -4.2
12,C35A A37G U56A U61A,-3.7
13,C35A U77C G83A A106C G126A U134G,≤ -4.2
14,C35G A37U G42C G58C G59C G86U U130G,≤ -4.2
15,C35G G68A G128C G133A,≤ -4.2
16,C35G U53G U134G,≤ -4.2
17,C36A C87A C105G,≤ -4.2
18,C35G U45A C57A C87A C93G A107U C125U,≤ -4.2
19,C35U G86C A137C,≤ -4.2
20,G34C U61G A64G C93U C95G G112U G141A,≤ -4.2
21,C35U G50C C93G G126U G136C G141A,≤ -4.2
22,C35A C57G G58U U77A,≤ -4.2
23,C36A C76G C99U A107C A142C,≤ -4.2
24,G34U A47U G59C A60G C75G G80A,≤ -4.2

row,Variant,polymerase ribozyme fitness (log ratio)
1,G34U A49C C76G A106G A137C,≤ -4.2
2,G34A U56A G58U A73U C76U U78G G88A C95U C105U A122U C132G,≤ -4.2
3,G34U C76G C79U C96G A97U C103A A107U A120U U145A C149U,≤ -4.2
4,C35A C43U A49U A64G C76U C96A U101G C149U,≤ -4.2
5,C36A A73U C95G A122U A147U,≤ -4.2
6,C35U A73U G88U C108G,≤ -4.2
7,C36A G48C G86A,≤ -4.2
8,C35U G50C,-3.9
9,C35G C54U A60U C85A,≤ -4.2
10,C35U A66G C96G U104A U135A U146C C149G,≤ -4.2
11,G34U C51U G59U G88A G141U A142G U146G A147U,≤ -4.2
12,G34U U55G G84C G94A A97C C105U C149U,≤ -4.2
13,G34U G88A C93U C103U G133C,≤ -4.2
14,C35A C54A C96U A107C,≤ -4.2
15,C35U G124U,-1.25
16,C35G G68A A91U U144C,≤ -4.2
17,C36A C63U G71U C87G,≤ -4.2
18,C35G G46A C75G G94C C105G,≤ -4.2
19,C35G G83A A89C A142U,≤ -4.2
20,G34C C85G C105G A137G,≤ -4.2
21,G34U C95U A107G A110G,-3.86
22,C35U A49C U53G C75G G92A A119U A120G G133U A138C,≤ -4.2
23,C35G C69A C76A C118G U127C,≤ -4.2
24,C36A C85A A106G A122U C129A,≤ -4.2

row,Variant,polymerase ribozyme fitness (log ratio)
1,C35U G86A C87G C132U,≤ -4.2
2,C35A U82G C85A U109G G141A G143A A150C U151A,≤ -4.2
3,G34U C63U C76U A89U C108A A137U,≤ -4.2
4,C35A G67U G94U,≤ -4.2
5,C35A U44A G70C C76U C103G U145G,≤ -4.2
6,C36A C57A C79G U82G,≤ -4.2
7,C35G G42U C95A,≤ -4.2
8,G34U G48A G94A G128C U146A U151G,≤ -4.2
9,C35U A52C C123U,-1.31
10,C35G G48U G70A G92C C96G,≤ -4.2
11,C35G G50C U55G C96U A110G U145C,≤ -4.2
12,C35U G74A G140C,≤ -4.2
13,C35U U77G C87A U104G,≤ -4.2
14,C35A C57U C76G,≤ -4.2
15,C35A A52C C79G C96U U127C C149A,≤ -4.2
16,C35A U55G C69A G140A,≤ -4.2
17,C35G U55G G81A A98G U102A,≤ -4.2
18,C35U A49C U53A G68A C116U G141U,≤ -4.2
19,G34C C35G G42A A66G C99G,≤ -4.2
20,C35U U44A U77A G84A C96U A142C,≤ -4.2
21,C35A C85A C93A A98U G100U C108G C114A,≤ -4.2
22,C35U C85U C93G G94U C99U U104A G128A C131G G143U,≤ -4.2
23,C35A C75U C76G G86U C118A,≤ -4.2
24,C35U C43G C93A C103G,≤ -4.2

row,Variant,polymerase ribozyme fitness (log ratio)
1,G34C G58A U77A U82G G86A C105A U127A G141C,≤ -4.2
2,C35A A41G U56A G81A A107U,≤ -4.2
3,G34C G50A A66G C93G U139A C149U,≤ -4.2
4,C35U C57A G133C G141C,≤ -4.2
5,G34U A39U C43A C85U G117A,-3.98
6,G34C U56A G74A G88A U90A A137G,≤ -4.2
7,C35G C85G A122U U134C,≤ -4.2
8,C35U A41U C95U A113U G117C A150C,≤ -4.2
9,C35U C63G G68A U102G A122G,≤ -4.2
10,C35A A64C A98U C99U G152U,≤ -4.2
11,C35G U90A C96A U104G A119U C125A,≤ -4.2
12,G34C C93G A98G,≤ -4.2
13,C35G U90A G143A,≤ -4.2
14,C36A A49C C87G C96A U144A,≤ -4.2
15,C35U G86A A91C G126U G141U U145C,≤ -4.2
16,C35U G50C G81A A98C A107U A110G,≤ -4.2
17,C35G A98U,≤ -4.2
18,C35A C75U G128U U144G,≤ -4.2
19,C35U C43G G48A U148G,≤ -4.2
20,C36A A40U G81A C87G A89C C118G A122G G141U G143A U146G,≤ -4.2
21,C35A G88U U101A U130C,≤ -4.2
22,C35U G50C C85U A107U C123U,≤ -4.2
23,C35U G46C G50U C57G C75U C114U C132A,≤ -4.2
24,C35A A98G U101C,≤ -4.2

row,Variant,polymerase ribozyme fitness (log ratio)
1,C36A G46C U90C C95U,≤ -4.2
2,C35A A41C G68A C93G C108G A147G,≤ -4.2
3,C35U U45G G59C C75U A89U G92C A138G G143U,≤ -4.2
4,C35A A89U U90G C99U U144G,≤ -4.2
5,C35U C69U A91G C118A,-3.8
6,G34C U55G G84A C108A C132A,≤ -4.2
7,C35A G86U C105U U109G,≤ -4.2
8,C35G G84A C93G U101G,≤ -4.2
9,C36A G58A C72G G92U A115C A147G,≤ -4.2
10,C35G A73G C75U C99A,≤ -4.2
11,C35A U45A U55A C85G G92U C96U A120U C125G A137C,≤ -4.2
12,C35A U101A,≤ -4.2
13,C35G C63U A91G C93A A97U C108U C123G G124C,≤ -4.2
14,C35U G50U U56A G68A C85U A137C,≤ -4.2
15,C35G U55G G67A G92U,≤ -4.2
16,C35A C79U U90G G92C C95G C99A A115C U144G,≤ -4.2
17,C35G A91U G152U,≤ -4.2
18,C36A C85A A138U,≤ -4.2
19,C35G G59A C85A A106G G126U,≤ -4.2
20,C36A A64U A107U U139A G140C,≤ -4.2
21,G34C C75U U77C,≤ -4.2
22,C35U C75G U127C,≤ -4.2
23,G34U C35G C76A G86C C103G A121G G126C,≤ -4.2

# Reference: the RNAGym collection of RNA variant scans (doi:10.1073/pnas.2313332121)
